Measured values reported in PMC12136788.
The list shows a part of the results.

B1: chr14:103503186:103503248:+|CDS_3pUTR|ENSG00000075413|msi1_unk|total|mutant (ssRNA)
RNA: GGGAGUUCUACAGUCCGACGAUCUGCUUCCAAAAUUGCCAAUGAGCUAAAGCUGUAACCCAGUGAUUAUGAUGUAAAUUAAGCCGCAAUUAAAGUGUUUUCCUGAACACUGAUGGAAAUGUACCGAAUAAUAUUCCGGCAAUACAACAGAGGAUUGAGCAUCA
B2: ENSG00000107863:be:win_3651|CDS|ENSG00000107863|bound_else_gene|NA|bound_elsewhere_windowed (ssRNA)
RNA: GGGAGUUCUACAGUCCGACGAUCUGUGAUAAGCAGUUUACUAAAAUCCUUCUUCAGAAAACUCCCUGAGCCUCUCUUCACAAAUGAUAAAUAUGCUGAUUUUAUUGAAGCCAAUCGUAAAGAAGAUCCUCUAGAUCGUCUGAACAACAGAGGAUUGAGCAUCA
B3: chr6:32292983:32294035:-|CDS|ENSG00000204296|control|control|control (ssRNA)
RNA: GGGAGUUCUACAGUCCGACGAUCACAGGAAGCCCAGGUAGAGAAGAGUGAGUUGAAGGUACCAAAAGGACAAGAAGGCCAAGUAGAGAAGACUGAGGCAGAUGUGCCAAAGGAACAAGAGGUCCAAGAAAAGAAGAGUGAGGCCAACAGAGGAUUGAGCAUCA
B4: chr5:103029089:103029184:+|3pUTR|ENSG00000145730|msi1_unk|total|mutant (ssRNA)
RNA: GGGAGUUCUACAGUCCGACGAUCAACCAAGCUUUGAUUCCGAUUGAGUAAGAUUUACCCAGAAUGUCAGAUUCCUUUCCCUUCCGCACGUUUAAAGUUCUGUGUAUUUAAUUGUAAACUGUACCCGUCUGUGUGGGACUGUACCAACAGAGGAUUGAGCAUCA
B5: chr1:35420597:35420698:+|3pUTR|ENSG00000146463|msi1|total|mutant (ssRNA)
RNA: GGGAGUUCUACAGUCCGACGAUCGUUCCUCUUAUUUUGUCUUUUGCACCAGUUUCUGGAGGCCCUUGUCAUUUCAAAAAGGACCGUCUCUUUUCUUACUCUGGCAAACCUGUGAGUGAUUCCACAAAGAUACAGUAUUACUUACAACAGAGGAUUGAGCAUCA
B6: chr19:48970371:48970709:-|CDS|ENSG00000104812|control|control|control (ssRNA)
RNA: GGGAGUUCUACAGUCCGACGAUCCUAGGCCGGGUAGGACCCCCACUUUCCUAUCCUCUCCUGGCAAAUCAGCAGCUCCUGGCUAGGGGUCUUUGGUGCAGGGUGCAGGGUCUCAUCCUACUUGUAACAGUUGCUGUCCCUUUACAACAGAGGAUUGAGCAUCA
B7: chr18:70325936:70326038:+|CDS|ENSG00000170677|unk|total|mutant (ssRNA)
RNA: GGGAGUUCUACAGUCCGACGAUCAGCUUUCGCUCCCAUGGUAAAACACUUCACACCCGAAUUGAGCACUCAAAUGGCCGGUUCCGCUUUUAUGAACAGCCAGAUGUGGAAGGACAUACGUCCACCGUUGAUCUAAUUGAGCAUCAACAGAGGAUUGAGCAUCA
B8: chrX:74591538:74591767:-|CDS|ENSG00000131263|unk|FALSE|bound_elsewhere (ssRNA)
RNA: GGGAGUUCUACAGUCCGACGAUCUUGCCCUUCCUUAGCCUGGCUCAGUUUUUCCUCUUAAAUGAGGAUGAUGAUGACCAACCUAGAGGACUCACCAAAGAACAGAUUGACAACUUGGCAAUGAGAAGUUUUGGUGAAAAUGAUCAACAGAGGAUUGAGCAUCA
B9: chr6:44253573:44253761:+|CDS_3pUTR|ENSG00000096384|msi1_unk|total|mutant (ssRNA)
RNA: GGGAGUUCUACAGUCCGACGAUCUCGCAUGGAAGAAGUCGAUCCGGUCCGGAGUUCACCGUUGGAAAACUUGUGCCCUUGUACCGUGUCCCCAUGGGCUCCCACUGCAGCCUCGAGUGCCCCUGUCCCACCUGGCUCCCCCUGCAACAGAGGAUUGAGCAUCA
B10: chr15:48879495:48879609:+|3pUTR|ENSG00000255302|msi1|FALSE|bound_elsewhere (ssRNA)
RNA: GGGAGUUCUACAGUCCGACGAUCGACACUAAAUGUGUGUGAAUGUACAAAGAAAACAAACCAUUGCUUAUGCUGUUAUAUACUAGAGAAAUUUUGUUUUGCUUGCUGUUUUAACUUGACAGAUGAAGGACUUUAGUUGAACUUCAACAGAGGAUUGAGCAUCA
B11: ENSG00000070961:be:win_6451|3pUTR|ENSG00000070961|bound_else_gene|NA|bound_elsewhere_windowed (ssRNA)
RNA: GGGAGUUCUACAGUCCGACGAUCUAAGCCAACUGAGAUACCGUGAUGGUGUUGAUUUCUUUCAAUGAUGCUUACCAUCUAUUUUAGCCACUGAGCCUUUUAUUAUUUGUCUAUUUGUAAAGUUUAUUUGUCUUAACUCAUUUACAACAGAGGAUUGAGCAUCA
B12: chr11:2944997:2945113:-|3pUTR|ENSG00000205531|unk|FALSE|unique (ssRNA)
RNA: GGGAGUUCUACAGUCCGACGAUCCUGUGUAGAGUAGGGCCCUGUUCUCCUUAGGAUGUUGCUUCUUGAUUUUUUUUUUUUUUUAGGGGUGGGUCAGGGUUGUGACACACCAGCCCAGGUGAGAGCUGCUGCGGGUCACCUCAUCAACAGAGGAUUGAGCAUCA
B13: chr13:19772241:19772543:-|CDS|ENSG00000121390|control|control|control (ssRNA)
RNA: GGGAGUUCUACAGUCCGACGAUCAGUAGAGAAAGCUGUUGUGGUUGUGGAUGAUCGCGGUAGAGCUACAGGAAAAGGUUUUGUAGAGUUUGCAGCAAAACCUCCUGCACGAAAGGCUCUGGAAAGAUGUGGUGAUGGGGCAUUCAACAGAGGAUUGAGCAUCA
B14: chr3:141443649:141443750:+|CDS|ENSG00000177311|unk|FALSE|unique (ssRNA)
RNA: GGGAGUUCUACAGUCCGACGAUCCCUACCAUUGGACAAAAUGGAGGUUCAUUCACAGGUCCAGAACCUUUAUUAUCUGAAAAUAGGAUUGGUGAAUUUUCCAGUACCGGAAGUACUUUGCCAGACACGGACCACAUGGUUAAACAACAGAGGAUUGAGCAUCA
B15: chr11:64204363:64204470:+|3pUTR|ENSG00000168439|unk|FALSE|unique (ssRNA)
RNA: GGGAGUUCUACAGUCCGACGAUCGCCCUCGAGUUCCAUGUCUCUUUCCCCUGCCCCUAGUUGCUGUCUCGGCUGCUCUCCCAUAGUUGGUUUUUUUUUUAUUUGGGGCAGUGGGCAUGUUAUGGGGAGGGGAGGGGGUUCUUCCAACAGAGGAUUGAGCAUCA
B16: chr11:56742830:56743766:-|CDS|ENSG00000172457|control|control|control (ssRNA)
RNA: GGGAGUUCUACAGUCCGACGAUCGACAAAGUAGCUGCUCUGUUCUACACCGUGAUCAACCCACUGCUCAACCCUCUCAUCUAUAGCCUGAGAAACAAAGAUAUCAAAGAGGCCUUCAGGAAAGCAACACAGACUAUACAACCACAACAGAGGAUUGAGCAUCA
B17: chr5:181194513:181194614:-|3pUTR|ENSG00000146054|unk|FALSE|unique (ssRNA)
RNA: GGGAGUUCUACAGUCCGACGAUCUCUUUGAGUGACAAGCCCGGGACAACAGCCAGUGGGCAUCACGGCUCUCCAGCACUCCUUAGCCGGAGGAUACAGAGUGAUGGGUGCAUCCUGACCAAUGCGACAACCAACACGUGCUCUCAACAGAGGAUUGAGCAUCA
B18: ENSG00000124766:be:win_2501|3pUTR|ENSG00000124766|bound_else_gene|NA|bound_elsewhere_windowed (ssRNA)
RNA: GGGAGUUCUACAGUCCGACGAUCGUGUUGGAUUAUUUCAAUGGUGGGGUUAAUAUAGCAUGUUAUCCUGUCUAUCUUUUAAAGAUUUCUGUAUAAGACUGUUGAGCAGUUUUUAAAAUAGUGUAGGAUAAUAUAAAAAGCAGACAACAGAGGAUUGAGCAUCA
B19: chr16:2708819:2708933:+|3pUTR|ENSG00000167977|unk|FALSE|unique (ssRNA)
RNA: GGGAGUUCUACAGUCCGACGAUCCUCUCUGGGGAGCUGCUGGCCGCUUAGCGUUGUUUGAUUUUUGACCUUGACAUAGUAGAUAGGCUUGUGGUUUUUUUAAUUUAAAGAUAUUAAGACUUAAUUCACUAAAAUUUAUUCUAACAACAGAGGAUUGAGCAUCA
B20: chr7:20412513:20412614:+|3pUTR|ENSG00000105855|msi1|FALSE|unique (ssRNA)
RNA: GGGAGUUCUACAGUCCGACGAUCUCCUUAAAAAUCCAGAGUUUAUAUUUUUUUUAUACCCUCACUUGUUUGCACUAACUUUAUAGUGGACCAAGGCUGUUACCAUAGGAAGGGACAAACUUCCUUGUAGGCAACUCAGUGUUACAACAGAGGAUUGAGCAUCA
B21: chr13:109754583:109754684:-|3pUTR|ENSG00000185950|msi1|total|mutant (ssRNA)
RNA: GGGAGUUCUACAGUCCGACGAUCGAUCUCCCUGAACAUUUUUAAGGUUUUACUUUUCUGAAAUUAUACAUCACAGCAGUGCACCGGCCAUAUAAUGUCCGCUGGAAGGUCAAUUUCAGUGUAUGAUAUACUUUAUUAAGAUGUCAACAGAGGAUUGAGCAUCA
B22: chr15:38470281:38470388:+|CDS|ENSG00000171262|unk|FALSE|unique (ssRNA)
RNA: GGGAGUUCUACAGUCCGACGAUCCUUCAAGCUUCACAGAUAUUACAGAACAAGAAACAUAAAAAUUCUCAAUUAGAUAAAAAUAGUGAAGUUUAUCAGGAAGUUCAAGCUAUGUUUGAUACACUUGGUAUACCCAAGUCAACACAACAGAGGAUUGAGCAUCA

molecular target: MSI1 full-length (mouse, UniProt Q61474 1-362); experiment: nsRBNS (natural sequence RNA bind-n-seq); RBNS binding buffer (assumed for nsRBNS): 25 mM Tris pH 7.5, 150 mM KCl, 3 mM MgCl2, 0.01% Triton X-100, 500 ug/ml BSA, 20 U/ml SUPERase-In, 4 C; UNK is unkempt and MSI1 is Musashi-1; names of the RNAs are library labels; protein concentration not given here; high values mean tight binding
UniProt Q61474, sequence (Q61474 whole entry): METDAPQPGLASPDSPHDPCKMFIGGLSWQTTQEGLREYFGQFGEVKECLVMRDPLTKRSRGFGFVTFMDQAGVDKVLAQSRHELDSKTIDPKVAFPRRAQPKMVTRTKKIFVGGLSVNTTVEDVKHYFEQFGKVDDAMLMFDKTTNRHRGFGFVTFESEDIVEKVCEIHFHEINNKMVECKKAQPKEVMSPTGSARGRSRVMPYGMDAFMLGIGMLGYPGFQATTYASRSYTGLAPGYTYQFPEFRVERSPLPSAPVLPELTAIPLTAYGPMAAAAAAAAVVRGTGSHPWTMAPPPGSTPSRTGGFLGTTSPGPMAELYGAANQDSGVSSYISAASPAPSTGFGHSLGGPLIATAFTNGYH

Row | Binder | binding signal [enrichment R]
1 | B1 | 0.329
2 | B2 | 0.44
3 | B3 | 1.38
4 | B4 | 0.488
5 | B5 | 0.515
6 | B6 | 0.678
7 | B7 | 0.315
8 | B8 | 0.258
9 | B9 | 0.475
10 | B10 | 1.09
11 | B11 | 6.17
12 | B12 | 2.84
13 | B13 | 0.715
14 | B14 | 0.302
15 | B15 | 3.14
16 | B16 | 0.821
17 | B17 | 0.34
18 | B18 | 4.39
19 | B19 | 9.33
20 | B20 | 0.682
21 | B21 | 0.59
22 | B22 | 1.7
